Assay results as given in PubChem BioAssay AID1030 (National Center for Advancing Translational Sciences (NCATS), 2008).
In all, about 220,000 compounds went through this assay and about 16,000 (7.3%) were called active. The shares of active, inactive and inconclusive entries below differ from those in the screen. The call rests on the fitted dose curve; in most records, active means well fitted inhibition curve with a large enough effect (not every such curve was filed as active); inconclusive means small, poorly fitted or top-dose-only effect, or another doubt; inactive means no such curve, though single readings can be large or run the other way. Where the call is inconclusive, the potency comes from a doubtful curve fit.

Target: Aldehyde dehydrogenase 1A1 (Homo sapiens) (UniProt P00352)
Assay: qHTS Assay for Inhibitors of Aldehyde Dehydrogenase 1 (ALDH1A1);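 on activity, negative = inhibition: plate controls were no enzyme wells and a reference inhibitor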
Settings: Purified ALDH1A1, NADH fluorescence, propionaldehyde substrate; series mostly up to 75.3 µM
Potency means the concentration at half of the fitted maximal effect; tags describe the fitted curve by direction and shape.

Chain of UniProt P00352 (P00352 whole entry, looked up): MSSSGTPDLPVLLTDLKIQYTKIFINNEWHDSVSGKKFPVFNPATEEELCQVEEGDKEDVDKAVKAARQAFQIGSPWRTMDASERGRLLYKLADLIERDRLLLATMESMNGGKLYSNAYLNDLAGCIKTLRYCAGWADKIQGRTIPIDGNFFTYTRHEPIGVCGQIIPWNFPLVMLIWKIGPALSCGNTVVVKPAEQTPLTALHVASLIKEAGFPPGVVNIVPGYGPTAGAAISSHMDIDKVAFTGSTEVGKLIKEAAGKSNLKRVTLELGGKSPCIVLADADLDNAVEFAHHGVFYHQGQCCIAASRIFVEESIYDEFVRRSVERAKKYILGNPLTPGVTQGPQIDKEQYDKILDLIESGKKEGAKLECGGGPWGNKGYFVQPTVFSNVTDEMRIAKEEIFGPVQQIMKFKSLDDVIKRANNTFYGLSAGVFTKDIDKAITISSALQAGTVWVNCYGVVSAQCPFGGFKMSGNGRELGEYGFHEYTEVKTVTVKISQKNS

Potency, inactive:
Cc1cc2cc(CCNC(=O)C3c4ccccc4Oc4ccccc43)c(=O)[nH]c2cc1C, COc1ccc(-c2[nH]ncc2N=Nc2ccccc2)cc1, COc1ccccc1-c1nc(N2CCOCC2)c2ccccc2n1, Nc1c(-c2ccccc2)cnn1-c1cccc(C(F)(F)F)c1, CC(C)Cc1nc2oc3c(N4CCN(C)CC4)ncnc3c2c2c1CCCC2, COc1ccccc1N(C)S(=O)(=O)c1ccc(C(=O)OCC(=O)NCCC2=CCCCC2)cc1, CCOc1ccc(S(=O)(=O)Nc2nc3cc(OC)ccc3s2)cc1, COCc1nnc(NC(=O)c2ccc(S(=O)(=O)N3CCCc4ccccc43)cc2)o1, CCOc1cc(NC(=O)CC(C)C)c(OCC)cc1NC(=O)CCn1nnc2ccccc21, Cn1ncc2c(NNC(=O)c3ccccc3Cl)ncnc21, CCOc1ccc(NC(=NCc2ccc3c(c2)OCO3)SC2CC(=O)N(c3ccccc3)C2=O)cc1 (stereo unspecified), CNC(=O)c1cc2ncc(C(F)(F)F)cc2s1, COc1ccc(N(CN2C(=O)C3C4C=CC(C4)C3C2=O)C(=O)c2ccco2)cc1 (stereo unspecified), O=S(=O)(Nc1ccc(N=Nc2ccccc2)cc1)c1ccccc1, Cc1onc(-c2ccccc2)c1-c1nnc(-c2ccccc2C(F)(F)F)o1

Potency, active:
O=C(CSc1nnnn1-c1ccccc1Cl)Nc1ccc2c(c1)OCCO2 0.224 µM, CCc1ccc(CNc2ccc(N3CCN(C(C)=O)CC3)cc2)cc1 22.4 µM, COc1ccc(NC(=O)/C(C#N)=C/c2ccc(Sc3nncn3C)c([N+](=O)[O-])c2)cc1 11.2 µM, O=C(/C=C1\NC2(CCCC2)Cc2ccccc21)C(=O)N/N=C/c1ccccc1O 4.47 µM, O=C(C1=C[C@@H]2[C@H]3C(=O)N(c4ccc(Cl)cc4)C(=O)[C@H]3[C@@H](C(=O)c3ccc(Cl)cc3)N2C=C1)c1ccccc1 14.1 µM, Cc1ccc(C(=O)N2CCN(Cc3ccc4c(c3)OCO4)CC2)cc1[N+](=O)[O-] 12.6 µM, C[C@H](Cc1ccc(O)c(O)c1)[C@@H](C)Cc1ccc(O)c(O)c1 0.158 µM, CCC(C)OC(=O)c1[nH]c2c(c1C)C(=O)CC(c1ccc(N(C)C)cc1)C2 (stereo unspecified) 3.55 µM, COc1ccc(C[C@H]2CN3C(=NC[C@H]3Cc3ccccc3)N2CCNC(=O)CCC2CCCCC2)cc1 10 µM, O=C(CSc1nnc(SCc2cccc3ccccc23)s1)N/N=C/c1c[nH]c2ccccc12 14.1 µM, O=C(C[n+]1cn(C(F)F)c2ccccc21)c1ccc(OC(F)F)cc1 9.46 µM, FC(F)(F)c1cnc(NNC(=S)Nc2ccc(Cl)cc2)c(Cl)c1 5.01 µM, Cc1ccc2cc(C(c3nnnn3CC3CCCO3)N3CCc4ccccc4C3)c(=O)[nH]c2c1 (stereo unspecified) 17.8 µM, Cc1ccc(NC(=O)COC(=O)C(NS(=O)(=O)c2ccc(Cl)cc2)C(C)O)c(Br)c1 (stereo unspecified) 3.55 µM, CC1(C)Cc2c(sc(NC(=S)NC(=O)c3ccccc3)c2C(=O)O)CO1 22.4 µM

Potency, inconclusive:
O=S(=O)(Nc1cccc(-c2cn3c(n2)SCC3)c1)c1cccs1 25.1 µM [inhibitor, single point], O=C(/C=C/c1ccco1)NC(=S)Nc1ccccn1 39.8 µM [inhibitor, single point], O=C(C1=C[C@H](c2ccc3c(c2)OCO3)C[C@H](OCc2ccc(CO)cc2)O1)N1CCCCCCC1 22.4 µM [inhibitor, partial curve], N#CC1=C(N)OC2=C(CCc3ccccc32)C1c1ccccc1Cl (stereo unspecified) 39.8 µM [inhibitor, single point], COc1ccc2[nH]c(=O)c(CN(C)C(=O)COc3ccccc3)cc2c1 35.5 µM [inhibitor, single point], COc1cc(-c2ccc(NC(=O)c3ccc(C)cc3)c(OC)c2)ccc1NC(=O)c1ccc(C)cc1 35.5 µM [inhibitor, single point], CCCOc1nc2c(c(=O)n(C)c(=O)n2C)n1Cc1cccc2ccccc12 31.6 µM [inhibitor, single point], COCCn1c(-c2ccsc2)nc2c1c(=O)[nH]c(=O)n2CC(C)C 39.8 µM [inhibitor, single point], Cc1cc(C(=O)NNC(=S)NCc2ccco2)n(C)n1 39.8 µM [inhibitor, single point], Cc1nc(NC2CCCCC2)c2nc(-c3ccccc3)n(CCN3CCCCC3)c2n1 25.1 µM [inhibitor, partial curve], COc1ccc2c(=O)cc(-c3ccc(O)cc3)oc2c1 25.1 µM [inhibitor, single point], COc1ccc(OC)c(NC(=O)c2ccccc2SC)c1 39.8 µM [inhibitor, single point], C=CCn1c(SCC(=O)Nc2sccc2C(N)=O)nc2sc(C)c(C)c2c1=O 39.8 µM [inhibitor, single point], CCCC1Cc2c(sc(N)c2C#N)CO1 (stereo unspecified) 39.8 µM [inhibitor, single point], CCOC(=O)N1CCN(C(=O)CSc2nnc(CNC(=O)c3ccccc3F)o2)CC1 28.2 µM [inhibitor, single point], COc1ccc(/C=C(/NC(=O)c2ccccc2)C(=O)N/N=C/c2sccc2C)cc1 39.8 µM [inhibitor, single point], COC(=O)CSc1ncccc1-c1nc2ccccc2[nH]1 25.1 µM [inhibitor, single point], CCN1CC=C2C(C#N)=C(N)C(C#N)(C#N)C(c3cc(Cl)ccc3Cl)C2C1 (stereo unspecified) 25.1 µM [inhibitor, partial curve], N#Cc1c(NC(=O)CSc2nc(-c3ccco3)cc(C(F)(F)F)n2)sc2c1CCCC2 28.2 µM [inhibitor, single point], CC(C)CC(NC(=O)c1ccc(Cl)cc1)C(=O)OCc1cc([N+](=O)[O-])cc2c1OCOC2 (stereo unspecified) 12.6 µM [inhibitor, partial curve], CCn1c(=N)c(S(=O)(=O)c2ccc(Cl)cc2)cc2c(=O)n3ccccc3nc21 8.91 µM [inhibitor, single point], CN(C)/C=C1/Sc2ccccc2C1=O 39.8 µM [inhibitor, single point], CC(C)Nc1nc(Oc2cccc(Cl)c2Cl)cc(C(F)(F)F)n1 39.8 µM [inhibitor, single point], CC(=O)NCCn1c(SCC(=O)c2ccccc2)nc2ccccc2c1=O 25.1 µM [inhibitor, single point], CCc1c(C)nc(SCC(=O)c2cccs2)c(C#N)c1C 39.8 µM [inhibitor, single point], COc1ccc(CN2C(=O)/C(=C/c3ccc(-c4ccc(Cl)c(C(=O)O)c4)o3)SC2=S)cc1 4.47 µM [inhibitor, partial curve], COc1cc(CC(=O)N/N=C/c2ccc([N+](=O)[O-])cc2)c([N+](=O)[O-])cc1OC 39.8 µM [inhibitor, single point], O=C(NC1CCCCC1)C1CCN(S(=O)(=O)N2CCCCCC2)CC1 14.1 µM [inhibitor, partial curve], Cc1ccc(/C=C/C(=O)N2CCCC(C)C2)cc1 (stereo unspecified) 22.4 µM [inhibitor, partial curve], O=C(c1ccc(=O)oc1)N1CCN(C(c2ccccc2)c2ccccc2)CC1 35.5 µM [inhibitor, single point], NS(=O)(=O)c1ccc(NC(=O)C(=O)NCCC(=O)O)cc1 35.5 µM [inhibitor, single point], CCN1C(=O)c2cccc3c(N)ccc1c23 31.6 µM [inhibitor, partial curve], C/C(=N\NC(=S)NCc1ccccc1)c1ccc(C)o1 35.5 µM [inhibitor, single point], CC(=O)N1Cc2ccccc2C(C)CC12CCCCC2 (stereo unspecified) 44.7 µM [inhibitor, single point], CCOC(=O)COc1ccc2c(=O)c(-c3ccc(OC)c(OC)c3)c(C(=O)OCC)oc2c1 39.8 µM [inhibitor, single point], CCCOc1ccc2oc(=O)c3c(c2c1)CCCN3C(=O)CN1CCCC(C(=O)OCC)C1 (stereo unspecified) 35.5 µM [inhibitor, single point], N#Cc1c(-c2ccccc2)nc(-c2ccccc2)[nH]c1=O 3.55 µM [inhibitor, full curve], CC(C)Oc1ccc(/C(O)=C2/C(=O)C(=O)N(CCN(C)C)C2c2ccco2)cc1 (stereo unspecified) 39.8 µM [inhibitor, single point], CCCn1c(O)c(CN2CCCCC2)c(C)c(C#N)c1=O 39.8 µM [inhibitor, single point], COc1ccc(CC2(C)OC(c3ccc(Cl)cc3)=NN2C(C)=O)cc1 (stereo unspecified) 35.5 µM [inhibitor, single point]

activity, negative = inhibition, inactive:
O=C(O)c1cccc(CN2CCCCC2)c1 14.8% [at 13.5 µM]
